# According to PubChem BioAssay (Tox21):
# Where “and” joins values, the source holds several entries; their conditions need not be identical. Identical values can stand only once. Inconclusive means that the source gave no clear call. Such entries were picked first, then a sample of the others. For some assays here: Potencies of inconclusive entries are doubtful fits and often do not repeat. More than one record can exist for a structure, and the calls need not agree. Calls of active or inactive are those of the source. Unless noted, calls come from the whole dose curve; as a rule, active = well fitted curve in the direction sought with a large enough effect in the repeat runs; inconclusive = weak or mixed curves; inactive = no such curve, though single readings can be large; an effect the other way counts as inactive or inconclusive.
# Assays:
# [1] = qHTS RealTime-Glo MT Cell Viability Assay in HEK293 cells - 24 hour (AID 1224886); note: nearly all actives have a fitted effect of over 50% in size; note: potency is the fitted concentration of half-maximal effect
# Method in brief: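 HEK293 cells seeded with NanoLuc/prosubstrate reagent, rested 5 h at 37 C, then dosed and kept at 37 C up to 40 h. Nonlytic real-time luminescence from viable cells read at 0, 8, 16, 24, 32 and 40 h.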
# [2] = qHTS assay to identify small molecule antagonists of the sonic hedgehog signaling (Shh) pathway - cell viability counter screen (AID 1259367); note: potency is the fitted concentration of half-maximal effect; nearly all actives have a fitted effect of over 55% in size
# Method in brief: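 Cells: 3T3 Gli1-Luc, 2,000/well, 4 hr pre-incubation. Compounds in DMSO, then conditioned medium. Incubation 24 hr, 37C, 5% CO2. CellTiter-Fluor at 23 hr, 1 hr, fluorescence.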
# [3] = target: Estrogen receptor beta (Homo sapiens) (UniProt Q92731); experiment: qHTS assay to identify small molecule agonists of the estrogen receptor beta (ER-beta) signaling pathway (AID 1259377; active = well fitted activation curve with a large enough effect in the signal ratio in the repeat runs, not every such curve was filed as active; inconclusive = weak or mixed curves, or effect the other way; the % refers to the signal ratio; note: potency is the fitted concentration of half-maximal effect; for activation: % is set by controls: 0 for no effect and ±100 for the full control effect); conditions: ER-beta-UAS-bla HEK293T, beta-lactamase FRET ratio, 16 h; activation: at 92.4 µM (top of the series) unless noted
# Method in brief: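 Measured by fluorescence intensity from a B/G FRET beta-lactamase substrate (2 h, room temperature) in ER-beta-UAS-bla HEK293T cells treated with DMSO-dissolved compounds for 16 hr at 37C and 5% CO2.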
# [4] = qHTS assay to identify small molecule antagonists of the sonic hedgehog signaling (Shh) pathway (AID 1259369; calls by dose curve; note: nearly all actives have a fitted effect of over 45% in size; note: potency is the fitted concentration of half-maximal effect)
# Method in brief: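 Screening used 3T3Gli1-Luc cells at 2,000 per well, compounds delivered in DMSO, and conditioned medium as agonist stimulus; plates incubated 24hr at 37 C and 5% CO2 before a 30min luciferase step.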
# [5] = qHTS assay to identify small molecule agonists of the androgen receptor (AR) signaling pathway in the presence of an antagonist - cell viability counter screen (AID 1259379);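 note: MDA-kb2 human breast cancer cells carrying an MMTV luciferase reporter; % is set by controls: 0 for no effect and ±100 for the full control effect; nearly all actives have a fitted effect of over 25% in size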
# Method in brief: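 In MDA-kb2 cells (human breast carcinoma, MMTV-luciferase), compounds at 15 concentrations plus 3.0uM nilutamide; 16 hr, 37C, 0% CO2; CellTiter-Fluor fluorescence read for viability.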
# [6] = qHTS RealTime-Glo MT Cell Viability Assay in HEK293 cells - 8 hour (AID 1224887); note: potency is the fitted concentration of half-maximal effect; nearly all actives have a fitted effect of over 50% in size
# Method in brief: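 qHTS format; HEK293 cells with NanoLuc/prosubstrate reagent, 37 C/5% CO2 for 5 h pre-dosing; compounds 23 nL in DMSO; luminescence at each time point reflects viable cells.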
# [7] = A CellTox Green Cytotoxicity Assay to monitor cytotoxicity in HEK293 cells - 16 hour (AID 1224888); note: nearly all actives have a fitted effect of over 35% in size; note: potency is the fitted concentration of half-maximal effect
# Method in brief: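 Each value comes from one timepoint of a single continuous run in which HEK293 cells with CellTox Green were exposed to compound for up to 40 h at 37 C, dye fluorescence rising with cell death.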
# [8] = A CellTox Green Cytotoxicity Assay to monitor cytotoxicity in HepG2 cells - 8 hour (AID 1224890); note: potency is the fitted concentration of half-maximal effect; nearly all actives have a fitted effect of over 45% in size
# Method in brief: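 Continuous culture of HepG2 cells with a membrane-impermeant DNA dye; rising fluorescence marks dead cells. Compound exposure lasted up to 40 h at 37 C, with reads every 8 h from 0 h.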
# [9] = qHTS assay to identify small molecule antagonists of the estrogen receptor alpha (ER-alpha) signaling pathway using the BG1 cell line in the presence of 0.1 nM 17-beta-estradiol - cell viability counter screen (AID 1259241); note: potency is the fitted concentration of half-maximal effect; nearly all actives have a fitted effect of over 40% in size
# Method in brief: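 Viability in VM7Luc4E2 cells after 22 hr compound exposure under 0.1 nM 17beta-estradiol stimulation, by CellTiter-Fluor.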
# [10] = qHTS assay to identify small molecule antagonists of the androgen receptor (AR) signaling pathway using the MDA cell line in the presence of 0.5 nM R1881 - cell viability counter screen (AID 1259242); note: potency is the fitted concentration of half-maximal effect; nearly all actives have a fitted effect of over 45% in size
# Method in brief: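 Fluorescence from CellTiter-Fluor, which reports protease activity of live cells, was read 30 min after reagent addition to MDA-kb2 cells that had been incubated 16 hr with compound and 0.5 nM R1881.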
# [11] = qHTS assay to identify small molecule HDAC inhibitors (AID 1259364); note: potency is the fitted concentration of half-maximal effect; nearly all actives have a fitted effect of over 45% in size
# Method in brief: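 Endogenous HDAC class I/II activity was measured in wild-type HCT-116 cells by HDAC-Glo luminescence after 2 h compound treatment.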
# [12] = qHTS assay to identify small molecule HDAC inhibitors - cell viability counter screen (AID 1259365); note: potency is the fitted concentration of half-maximal effect; nearly all actives have a fitted effect of over 50% in size
# Method in brief: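 Cytotoxicity was gauged in wild-type HCT-116 cells after a brief 2hr treatment with DMSO-dissolved compounds at 37C and 5% CO2, using CellTiter-Glo luminescence developed for 30min at room temperature.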
# [13] = qHTS assay to identify small molecule agonists of the sonic hedgehog signaling (Shh) pathway - cell viability counter screen (AID 1259366); note: potency is the fitted concentration of half-maximal effect; nearly all actives have a fitted effect of over 50% in size
# Method in brief: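 Stable Gli1-Luc NIH/3T3 clone, 2,000 cells/well. Compound exposure 24hr at 37C. Read-out: CellTiter-Fluor fluorescence.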
# [14] = target: Estrogen receptor beta (Homo sapiens) (UniProt Q92731); experiment: qHTS assay to identify small molecule antagonists of the estrogen receptor beta (ER-beta) signaling pathway (AID 1259378; active = well fitted inhibition curve with a large enough effect in the signal ratio in the repeat runs, not every such curve was filed as active; inconclusive = weak or mixed curves, or effect the other way; inactive = no such curve, though single readings can be large or run the other way; the % refers to the signal ratio; note: potency is the fitted concentration of half-maximal effect; for activity, negative = inhibition: % is set by controls: 0 for no effect and ±100 for the full control effect); conditions: ER-beta-UAS-bla HEK293T, beta-lactamase FRET ratio, 16 h; activity, negative = inhibition: at 92.4 µM (top of the series) unless noted
# Method in brief: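 Antagonist mode: compounds added to beta-lactamase reporter HEK293T ER-beta-UAS cells stimulated with E2 (1nM final), 16 hr at 37C. LiveBLAzer B/G FRET substrate, 2 hours room temperature, fluorescence read-out.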
# [15] = qHTS RealTime-Glo MT Cell Viability Assay in HepG2 cells - 0 hour (AID 1224889)
# Method in brief: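 HepG2 cells (600/well) were dispensed with RealTime-Glo reagents, incubated 5 h at 37 °C, then treated with compounds in DMSO for up to 40 h. Nonlytic NanoLuc luminescence reflecting viable cells was read at each stated time point.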
# [16] = qHTS assay to identify small molecule phospholipidosis (PLD) inducers (AID 1259344; active = well fitted curve in the direction sought with a large enough effect; inconclusive = small, poorly fitted or top-dose-only effect, or another doubt; inactive = no such curve, though single readings can be large; an effect the other way counts as inactive or inconclusive; note: % is set by controls: 0 for no effect and ±100 for the full control effect)
# Method in brief: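 Phospholipidosis is scored by imaging LipidTOX-stained pits in HepG2 cells exposed to compound for 24 h at 37 C; pit counts and integrated intensities per well and per cell serve as outputs.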
# Tags give direction and shape of the fitted curve or compound fluorescence and quenching.
# Chain of UniProt Q92731 (Q92731 whole entry, looked up): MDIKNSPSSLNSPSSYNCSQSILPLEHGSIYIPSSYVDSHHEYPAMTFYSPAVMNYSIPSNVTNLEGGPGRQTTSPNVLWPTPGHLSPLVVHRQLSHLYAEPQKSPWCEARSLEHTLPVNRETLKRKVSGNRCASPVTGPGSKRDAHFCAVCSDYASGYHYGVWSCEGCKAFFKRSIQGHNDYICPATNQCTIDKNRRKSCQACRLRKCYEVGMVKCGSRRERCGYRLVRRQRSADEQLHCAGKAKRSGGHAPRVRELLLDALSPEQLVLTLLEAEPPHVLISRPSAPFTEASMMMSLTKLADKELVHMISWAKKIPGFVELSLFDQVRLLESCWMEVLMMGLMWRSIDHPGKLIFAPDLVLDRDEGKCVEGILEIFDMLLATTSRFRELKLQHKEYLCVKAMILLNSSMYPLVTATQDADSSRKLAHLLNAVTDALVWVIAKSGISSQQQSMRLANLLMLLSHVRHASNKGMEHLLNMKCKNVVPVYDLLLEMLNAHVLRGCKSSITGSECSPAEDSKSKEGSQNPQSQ
smiles,measurement,setting,value
C[C@]12Cc3cn[nH]c3C[C@@H]1CC[C@@H]1[C@@H]2CC[C@@]2(C)[C@H]1CC[C@]2(C)O,Potency,[1],"inconclusive: 23.9 µM [cytotoxic, partial curve]"
same,Potency,[2],"inconclusive: 33.5 µM [cytotoxic, single point]"
CCCCC(CC)COC(=O)c1c(Br)c(Br)c(Br)c(Br)c1C(=O)OCC(CC)CCCC (stereo not given),Potency,[1],inactive
same,Potency,[3],inactive
Cc1ccc(OP(=O)(Oc2ccc(C)cc2)Oc2ccc(C)cc2)cc1,Potency,[1],"inconclusive: 2.18 µM [cytotoxic, full curve]"
same,Potency,[4],"inconclusive: 610 nM [inhibitor, full curve]"
CC(C)(c1ccccc1)c1cc(-n2nc3ccccc3n2)c(O)c(C(C)(C)c2ccccc2)c1,Potency,[1],inactive
same,Potency,[5],inactive
O=C(Cl)OCc1ccccc1,Potency,[1],inactive
same,Potency,[4],inactive
same,Potency,[3],inactive
Cc1ccc([N+](=O)[O-])[c]2c1[O][Hg]2,Potency,[6],active: 3.79 µM
same,Potency,[7],"inconclusive: 21.3 µM [activator, partial curve]"
same,Potency,[8],active: 3.79 µM
same,Potency,[9],active: 9.44 µM
same,Potency,[10],active: 6.68 µM
same,Potency,[11],"inconclusive: 29.8 µM [inhibitor, partial curve]"
same,Potency,[12],active: 29.8 µM
same,Potency,[13],active: 2.66 µM
same,Potency,[4],active: 266 nM
same,Potency,[14],"inconclusive: 2.98 µM [rising, partial curve]"
CC(=O)/C=C/c1ccccc1,Potency,[1],inactive
same,Potency,[4],inactive
same,Potency,[14],inactive
O=C(O)C1C2CCC(O2)C1C(=O)O (stereo not given),Potency,[1],"inconclusive: 55.6 µM [cytotoxic, single point]"
same,Potency,[2],"active: 31 µM and inconclusive: 25 µM [cytotoxic, partial curve]"
same,Potency,[4],"inconclusive: 22000 nM [inhibitor, full curve, poor fit]"
CC(=O)c1cc(C(C)(C)C)cc2c1CCC2(C)C,Potency,[6],"inconclusive: 43.6 µM [cytotoxic, partial curve]"
same,Potency,[7],inactive
O=[N+]([O-])c1c(Cl)c(Cl)cc(Cl)c1Cl,Potency,[6],"inconclusive: 61.6 µM [cytotoxic, partial curve, poor fit]"
same,Potency,[7],active: 49 µM
same,Potency,[3],"inconclusive: 12.2 µM [activator, full curve, poor fit]"
same,"activity, negative = inhibition",[14],inconclusive: -39.9%
CC1(C)CC(=O)CC(C)(C)N1[O],Potency,[1],inactive
same,Potency,[4],inactive
same,Potency,[14],inactive
CC(=O)[O][Hg][c]1ccccc1,Potency,[6],active: 433 nM and active: 1.55 µM and active: 425 nM
same,Potency,[7],"inconclusive: 1.93 µM [activator, partial curve, poor fit] and inconclusive: 7.76 µM [activator, partial curve] and active: 1.9 µM"
same,Potency,[15],"inconclusive: 54.5 µM [cytotoxic, partial curve, poor fit]"
same,Potency,[9],active: 4.81 µM and active: 9.69 µM and active: 11.9 µM
same,Potency,[16],inactive
same,Potency,[12],active: 3.82 µM and active: 6.11 µM and active: 16.8 µM
same,Potency,[2],active: 1.08 µM and active: 2.17 µM and active: 1.33 µM
same,Potency,[14],"inconclusive: 15.2 µM [cytotoxic, single point] and active: 3.44 µM and inconclusive: 37.6 µM [cytotoxic, single point]"
CN(C)[C@@H]1C(=O)C(C(N)=O)=C(O)[C@@]2(O)C(=O)C3=C(O)c4c(O)ccc(Cl)c4[C@@](C)(O)[C@H]3C[C@@H]12,Potency,[1],"inconclusive: 19.9 µM [cytotoxic, partial curve, poor fit]"
same,Potency,[3],inconclusive: 62.4 µM
same,Potency,[14],inconclusive: 62.4 µM
O=P(Oc1ccccc1)(Oc1ccccc1)Oc1ccccc1,Potency,[1],inactive
same,Potency,[4],active: 1.08 µM and active: 2.43 µM
same,Potency,[3],"inconclusive: 30.5 µM [rising, partial curve]"
same,Potency,[14],inconclusive: 24.2 µM
same,"activity, negative = inhibition",[14],inconclusive: -60.7%
ClC1C(Cl)C(Cl)C(Cl)C(Cl)C1Cl (stereo not given),Potency,[6],"inconclusive: 44 µM [cytotoxic, partial curve] and inconclusive: 56.1 µM [cytotoxic, single point] and inconclusive: 38.6 µM [cytotoxic, partial curve]"
same,Potency,[7],"inconclusive: 55.4 µM [activator, single point] and inconclusive: 48.6 µM [activator, single point]"
same,Potency,[8],"inconclusive: 56.1 µM [activator, single point] and inconclusive: 61.2 µM [activator, single point] and inconclusive: 43.6 µM [activator, partial curve]"
same,Potency,[12],"inconclusive: 61.1 µM [cytotoxic, partial curve, poor fit]"
same,activation,[3],inconclusive: 13.8%
O=C(Nc1ccccc1)Nc1ccnc(Cl)c1,Potency,[6],"inconclusive: 19.5 µM [cytotoxic, partial curve]"
same,Potency,[15],"inconclusive: 49 µM [cytotoxic, partial curve, poor fit]"
same,Potency,[9],"inconclusive: 38.6 µM [cytotoxic, partial curve, poor fit]"
same,Potency,[10],"inconclusive: 68.6 µM [cytotoxic, partial curve, poor fit]"
same,Potency,[11],active: 4.33 µM
same,Potency,[13],"inconclusive: 68.6 µM [cytotoxic, single point]"
same,Potency,[2],"inconclusive: 68.6 µM [cytotoxic, single point]"
same,Potency,[4],active: 2170 nM
